# Test results reported in the supplement of paper PMC12217912.
# The other results are listed elsewhere or left out. The full chains were built here from the parent and the listed change. Inactive controls read about 0.05.
# B1: TEV protease; numbered along this chain (parent)
# chain: MGESLFKGPRDYNPISSSICHLTNESDGHTTSLYGIGFGPFIITNKHLFRRNNGTLVVQSLHGVFKVKDTTTLQQHLVDGRDMIIIRMPKDFPPFPQKLKFREPQREERICLVTTNFQTKSMSSMVSDTSCTFPSGDGIFWKHWIQTKDGQCGSPLVSTRDGFIVGIHSASNFTNTNNYFTSVPKNFMELLTNQEAQQWVSGWRLNADSVLWGGHKVFMVKPEEPFQPVKEATQL
# Variants of: B1
# Experiment: raw area under fraction-flipped curve 0-4 h after induction (AUC4h, not background-subtracted), DNA-recorder readout of cleavage of the substrate (dimensionless); higher = more cleavage of the substrate by the protease variant
# Settings: temperature: 34 °C; time window: 0-4 h after rhamnose induction
# Procedure: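 In vivo DNA recorder in E. coli TOP10(DE3) ΔrhaA at 34 °C. Each TEVp single-site mutant (parent TEVp 0) is paired with a single-site variant of the 7-mer TEVs (canonical ENLYFQ|S). The substrate sits between flexible linkers in a Bxb1-sfGFP-TEVs-SsrA fusion, so cleavage stabilises Bxb1 and speeds flipping of a recombination array, read by NGS. The value is the raw area under the fraction-flipped curve over 0-4 h after rhamnose induction (AUC4h), with ≥20 reads per time point. It is not background-subtracted; inactive controls average about 0.047.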
# 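Note: Bxb1 expression induced with 0.2% (w/v) L-rhamnose at OD600 near 0.5, cultures sampled hourly, flipped fraction per protease–substrate barcode pair counted by paired-end Illumina sequencing.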
Variant,area with substrate ENLYFAS,area with substrate ENLYFCS,area with substrate ENLYFES,area with substrate ENLYFFS,area with substrate ENLYFGS,area with substrate ENLYFHS,area with substrate ENLYFIS,area with substrate ENLYFKS,area with substrate ENLYFMS,area with substrate ENLYFNS,area with substrate ENLYFPS,area with substrate ENLYFRS,area with substrate ENLYFSS,area with substrate ENLYFTS,area with substrate ENLYFVS,area with substrate ENLYFWS,area with substrate ENLYFYS,area with substrate ENLYFDS,area with substrate ENLYFLS
D27A,0.0767,0.0664,0.061,0.058,0.0629,0.0541,0.0599,0.0523,0.0648,0.0525,0.0504,0.0619,0.059,0.0487,0.0621,0.0599,0.0594,–,–
L33P,0.0449,–,0.0486,0.0571,0.051,0.048,0.0461,0.0513,–,–,0.0768,–,–,0.0393,0.0546,0.0455,0.057,0.0463,0.0484
T44D,0.0508,0.0597,–,0.0466,0.0496,0.03,0.0359,–,0.046,0.05,0.0441,–,–,0.0437,0.0297,–,0.0482,0.0383,–
S26F,0.0584,0.0593,0.0528,0.0723,–,0.0637,0.0597,0.0603,0.0683,–,0.0584,0.0541,0.0557,0.0582,0.0498,0.0585,0.0679,0.0557,0.0447
S26C,0.0487,0.06,0.0629,0.0671,–,0.0671,0.0525,0.0603,0.0612,0.0572,0.0672,0.0627,0.0523,0.0619,0.0551,0.0559,0.0575,0.0686,0.0962
F38P,0.0462,0.0428,0.0479,0.06,0.0561,0.0593,0.0402,–,0.0339,0.048,0.0434,0.0375,0.0423,0.0442,–,–,0.0331,0.0307,–
I36V,0.0583,0.0546,0.0528,0.0637,–,0.0512,0.044,0.057,0.0663,0.0595,0.0634,–,0.0714,0.0743,0.0525,–,0.0552,–,–
I36A,0.055,0.0246,–,0.0624,–,0.0397,0.0491,0.0513,0.0509,0.0463,0.0512,0.056,–,0.0478,–,0.0559,0.0614,–,0.0606
I36R,0.0477,0.05,0.042,0.0534,–,0.0594,0.0497,0.0301,0.0515,0.0397,0.0409,0.0637,0.044,0.0447,0.0414,0.0395,0.0368,0.0447,–
I36E,0.0589,0.0402,0.0457,0.0523,–,–,0.0517,0.0497,0.0437,0.0464,0.045,0.0516,–,0.0328,0.0194,0.0452,0.0339,0.0386,–
I19H,0.0536,0.0424,0.0587,0.0632,0.0548,0.0501,0.0485,0.0352,0.0645,0.0571,0.0526,–,–,–,0.0453,–,0.0495,–,0.0549
I15C,0.0605,0.0554,0.0673,0.0622,0.0591,0.0509,0.0506,0.0537,0.0684,0.0646,0.0589,0.0417,0.0479,0.0414,–,0.052,0.0367,0.0488,–
S18K,0.0466,–,0.0665,–,–,0.0556,0.0531,0.0823,0.0554,0.0603,0.0539,0.0611,0.053,–,0.0526,–,0.0536,–,0.0655
S18R,0.053,0.0604,–,0.0654,0.0507,–,0.0589,0.0609,0.0566,0.0559,0.0451,0.0489,–,0.0578,–,–,0.0515,–,0.0525
P14W,0.058,0.0664,0.0549,0.0946,0.0577,0.0609,0.0644,0.0683,0.0649,0.0605,0.0669,0.0661,–,0.0941,0.0711,0.0505,0.0561,0.0711,0.0637
P14C,0.0519,0.0719,0.0589,0.0695,0.0619,0.0568,0.0598,0.0645,0.0713,0.0612,0.0547,0.0579,0.0562,0.0608,0.0745,–,0.0381,0.0594,0.0553
T23S,0.0482,0.0664,0.0625,0.0789,0.0394,0.0352,0.0552,0.0553,0.0741,0.0726,0.0584,–,0.0786,0.0575,0.0628,–,0.0642,0.0556,0.0533
T23R,0.0645,0.0541,0.0658,0.0655,0.0794,0.0668,0.0398,0.0587,0.0618,0.0511,0.0633,0.0645,0.0526,0.0589,0.0659,0.0568,0.0563,0.079,0.0511
T31W,0.0316,–,0.0574,0.0776,0.0582,–,0.0364,0.0827,0.0664,0.0491,0.0508,0.0688,0.0654,0.0617,0.0582,0.0475,0.0548,–,0.0512
T31F,0.0587,0.0523,–,0.0617,0.071,0.0773,0.051,–,0.07,0.0649,0.0615,–,0.0529,0.0806,0.0214,0.0666,0.0563,–,–
G39Q,0.0443,0.0374,0.0513,0.0341,0.0499,0.0534,0.0397,–,0.0292,0.0445,0.0439,–,–,–,0.0371,0.0482,0.0348,–,0.0519
G39W,0.0419,0.0423,0.0467,0.0522,0.0396,0.0399,0.0433,–,0.0563,0.0484,0.0452,0.065,0.052,0.0457,0.0461,–,0.0494,0.0474,0.0419
